# Source: the supplement of paper PMC8728848
# The list shows a part of the results.
# Legend:
# Assay in all cases: glycan array binding signal (z-score within array); higher = stronger binding
# Conditions in all cases: glycan notation: IUPAC condensed, linker removed
# [1] = biological target: Gal(b1-3)GlcNAc(b1-2)Man(a1-3)[Gal(b1-3)GlcNAc(b1-2)Man(a1-6)]Man(b1-4)GlcNAc(b1-4)[Fuc(a1-6)]GlcNAc
# Method in brief: (§1)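 Arrays were curated from the Consortium for Functional Glycomics database, 3228 in total, and kept only where the protein sequence was available. Binding is expressed as a within-array Z-score. This score was averaged across arrays of the same protein sequence at different concentrations or buffers and across linkers, and negative values can be read as non-binding.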
# [2] = biological target: Gal(b1-3)GlcNAc(b1-2)Man(a1-3)[GlcNAc(b1-4)][Gal(b1-3)GlcNAc(b1-2)Man(a1-6)]Man(b1-4)GlcNAc(b1-4)GlcNAc
# Method in brief: as §1
# [3] = biological target: Gal(b1-3)GlcNAc(b1-2)[Gal(b1-3)GlcNAc(b1-6)]Man(a1-6)[Gal(b1-3)GlcNAc(b1-2)Man(a1-3)]Man(b1-4)GlcNAc(b1-4)GlcNAc
# Method in brief: as §1
# [4] = biological target: Gal(b1-3)GlcNAc(b1-3)Gal(b1-3)GlcNAc
# Method in brief: as §1
# [5] = biological target: Gal(b1-3)GlcNAc(b1-3)Gal(b1-4)Glc
# Method in brief: as §1
# [6] = biological target: Gal(b1-3)GlcNAc(b1-3)Gal(b1-4)GlcNAc
# Method in brief: as §1
# [7] = biological target: Gal(b1-3)GlcNAc(b1-3)Gal(b1-4)GlcNAc(b1-2)Man(a1-3)[Gal(b1-3)GlcNAc(b1-3)Gal(b1-4)GlcNAc(b1-2)Man(a1-6)]Man(b1-4)GlcNAc(b1-4)GlcNAc
# Method in brief: as §1
# [8] = biological target: Gal(b1-3)GlcNAc(b1-3)Gal(b1-4)GlcNAc(b1-2)[Gal(b1-3)GlcNAc(b1-3)Gal(b1-4)GlcNAc(b1-6)]Man(a1-6)[Gal(b1-3)GlcNAc(b1-3)Gal(b1-4)GlcNAc(b1-2)Man(a1-3)]Man(b1-4)GlcNAc(b1-4)[Fuc(a1-6)]GlcNAc
# Method in brief: as §1
# [9] = biological target: Gal(b1-3)GlcNAc(b1-3)Gal(b1-4)GlcNAc(b1-3)Gal(b1-4)GlcNAc(b1-2)[Gal(b1-3)GlcNAc(b1-3)Gal(b1-4)GlcNAc(b1-3)Gal(b1-4)GlcNAc(b1-6)]Man(a1-6)[Gal(b1-3)GlcNAc(b1-3)Gal(b1-4)GlcNAc(b1-3)Gal(b1-4)GlcNAc(b1-2)Man(a1-3)]Man(b1-4)GlcNAc(b1-4)[Fuc(a1-6)]GlcNAc
# Method in brief: as §1
# [10] = biological target: Gal(b1-3)GlcNAc(b1-3)Gal(b1-4)GlcNAc(b1-6)[Gal(b1-3)GlcNAc(b1-3)]Gal(b1-4)Glc
# Method in brief: as §1
# [11] = biological target: Gal(b1-3)GlcNAc(b1-3)Gal(b1-4)[Fuc(a1-3)]GlcNAc
# Method in brief: as §1
# [12] = biological target: Gal(b1-3)GlcNAc(b1-3)Gal(b1-4)[Fuc(a1-3)]GlcNAc(b1-6)[Gal(b1-3)GlcNAc(b1-3)]Gal(b1-4)Glc
# Method in brief: as §1
# [13] = biological target: Gal(b1-3)GlcNAc(b1-3)GalNAc
# Method in brief: as §1
# [14] = biological target: Gal(b1-3)GlcNAc(b1-6)Gal(b1-4)GlcNAc
# Method in brief: as §1
# [15] = biological target: Gal(b1-3)GlcNAc(b1-6)GalNAc
# Method in brief: as §1
# [16] = biological target: Gal(b1-3)GlcNAc(b1-6)[Gal(b1-3)]GalNAc
# Method in brief: as §1
# [17] = biological target: Gal(b1-3)GlcNAc6S
# Method in brief: as §1
# [18] = biological target: Gal(b1-3)[Fuc(a1-4)]GlcNAc
# Method in brief: as §1
# [19] = biological target: Gal(b1-3)[Fuc(a1-4)]GlcNAc(b1-2)Man
# Method in brief: as §1
# [20] = biological target: Gal(b1-3)[Fuc(a1-4)]GlcNAc(b1-2)Man(a1-3)[Gal(b1-3)[Fuc(a1-4)]GlcNAc(b1-2)Man(a1-6)]Man(b1-4)GlcNAc(b1-4)[Fuc(a1-6)]GlcNAc
# Method in brief: as §1
# [21] = biological target: Gal(b1-3)[Fuc(a1-4)]GlcNAc(b1-3)Gal(b1-3)[Fuc(a1-4)]GlcNAc
# Method in brief: as §1
# [22] = biological target: Gal(b1-3)[Fuc(a1-4)]GlcNAc(b1-3)Gal(b1-4)[Fuc(a1-3)]GlcNAc
# Method in brief: as §1
# [23] = biological target: Gal(b1-3)[Fuc(a1-4)]GlcNAc(b1-6)GalNAc
# Method in brief: as §1
# [24] = biological target: Gal(b1-3)[GlcNAc(b1-6)]GalNAc
# Method in brief: as §1
# [25] = biological target: Gal(b1-3)[Neu5Ac(a2-6)]GalNAc
# Method in brief: as §1
# [26] = biological target: Gal(b1-3)[Neu5Ac(a2-6)]GlcNAc(b1-4)Gal(b1-4)Glc
# Method in brief: as §1
# [27] = biological target: Gal(b1-3)[Neu5Ac(b2-6)]GalNAc
# Method in brief: as §1
# [28] = biological target: Gal(b1-4)Gal
# Method in brief: as §1
# [29] = biological target: Gal(b1-4)GalNAc(a1-3)[Fuc(a1-2)]Gal(b1-4)GlcNAc
# Method in brief: as §1
# [30] = biological target: Gal(b1-4)GalNAc(b1-3)[Fuc(a1-2)]Gal(b1-4)GlcNAc
# Method in brief: as §1
# [31] = biological target: Gal(b1-4)Glc
# Method in brief: as §1
# [32] = biological target: Gal(b1-4)Glc6S
# Method in brief: as §1
# [33] = biological target: Gal(b1-4)GlcNAc
# Method in brief: as §1
# [34] = biological target: Gal(b1-4)GlcNAc(a1-6)Gal(b1-4)GlcNAc
# Method in brief: as §1
# [35] = biological target: Gal(b1-4)GlcNAc(b1-2)Man
# Method in brief: as §1
# [36] = biological target: Gal(b1-4)GlcNAc(b1-2)Man(a1-3)Man(b1-4)GlcNAc(b1-4)GlcNAc
# Method in brief: as §1
# [37] = biological target: Gal(b1-4)GlcNAc(b1-2)Man(a1-3)[Gal(b1-4)GlcNAc(b1-2)Man(a1-6)]Man(b1-4)GlcNAc(b1-4)GlcNAc
# Method in brief: as §1
# [38] = biological target: Gal(b1-4)GlcNAc(b1-2)Man(a1-3)[Gal(b1-4)GlcNAc(b1-2)Man(a1-6)]Man(b1-4)GlcNAc(b1-4)[Fuc(a1-6)]GlcNAc
# Method in brief: as §1
# [39] = biological target: Gal(b1-4)GlcNAc(b1-2)Man(a1-3)[Gal(b1-4)GlcNAc(b1-2)Man(a1-6)][Gal(b1-4)GlcNAc(b1-4)]Man(b1-4)GlcNAc(b1-4)[Fuc(a1-6)]GlcNAc
# Method in brief: as §1
# [40] = biological target: Gal(b1-4)GlcNAc(b1-2)Man(a1-3)[Gal(b1-4)GlcNAc(b1-2)Man(a1-6)][GlcNAc(b1-4)]Man(b1-4)GlcNAc(b1-4)[Fuc(a1-6)]GlcNAc
# Method in brief: as §1
# [41] = biological target: Gal(b1-4)GlcNAc(b1-2)Man(a1-3)[GlcNAc(b1-2)Man(a1-6)]Man(b1-4)GlcNAc(b1-4)GlcNAc
# Method in brief: as §1
# [42] = biological target: Gal(b1-4)GlcNAc(b1-2)Man(a1-3)[GlcNAc(b1-4)][Gal(b1-4)GlcNAc(b1-2)Man(a1-6)]Man(b1-4)GlcNAc(b1-4)GlcNAc
# Method in brief: as §1
# [43] = biological target: Gal(b1-4)GlcNAc(b1-2)Man(a1-3)[Man(a1-6)]Man(b1-4)GlcNAc(b1-4)GlcNAc
# Method in brief: as §1
# [44] = biological target: Gal(b1-4)GlcNAc(b1-2)Man(a1-6)Man(b1-4)GlcNAc(b1-4)GlcNAc
# Method in brief: as §1
# [45] = biological target: Gal(b1-4)GlcNAc(b1-2)Man(a1-6)[GlcNAc(b1-2)Man(a1-3)]Man(b1-4)GlcNAc(b1-4)GlcNAc
# Method in brief: as §1
binder,measurement,setting,value
"CLECb-Precomplexed (Mus musculus), P43025 (protein) MAKNGLVLCILVVSLLLDQTDGYPSRMKARKHSKRRVKAKDDDLKSQVEKLWREVNALKEMQALQTVCLRGTKVHKKCYLASEGLKHYHEANEDCISKGGTLVVPRNSDEINALRDYGKRSLPGVNDFWLGINDMVTEGKFLDVHGFAVSFLNWDRAQPSGGKRENCVLFSQSAQGKWSDEACRSSKRYICEFIIPTRTRPLEQKLISEEDLAANDILDYKDDDDKV",glycan array binding signal (z-score),[1],-0.182
same,glycan array binding signal (z-score),[2],1.51
same,glycan array binding signal (z-score),[3],1.42
same,glycan array binding signal (z-score),[4],-0.229
same,glycan array binding signal (z-score),[5],0.974
same,glycan array binding signal (z-score),[6],1.06
same,glycan array binding signal (z-score),[7],0.774
same,glycan array binding signal (z-score),[8],0.18
same,glycan array binding signal (z-score),[9],0.916
same,glycan array binding signal (z-score),[10],-0.327
same,glycan array binding signal (z-score),[11],-0.084
same,glycan array binding signal (z-score),[12],-0.319
same,glycan array binding signal (z-score),[13],-0.415
same,glycan array binding signal (z-score),[14],-0.388
same,glycan array binding signal (z-score),[15],0.148
same,glycan array binding signal (z-score),[16],-0.462
same,glycan array binding signal (z-score),[17],-0.23
same,glycan array binding signal (z-score),[18],-0.207
same,glycan array binding signal (z-score),[19],-0.166
same,glycan array binding signal (z-score),[20],2.08
same,glycan array binding signal (z-score),[21],0.004
same,glycan array binding signal (z-score),[22],-0.217
same,glycan array binding signal (z-score),[23],0.649
same,glycan array binding signal (z-score),[24],-0.229
same,glycan array binding signal (z-score),[25],-0.475
same,glycan array binding signal (z-score),[26],-0.333
same,glycan array binding signal (z-score),[27],-0.33
same,glycan array binding signal (z-score),[28],-0.428
same,glycan array binding signal (z-score),[29],-0.078
same,glycan array binding signal (z-score),[30],-0.119
same,glycan array binding signal (z-score),[31],-0.461
same,glycan array binding signal (z-score),[32],0.251
same,glycan array binding signal (z-score),[33],-0.28
same,glycan array binding signal (z-score),[34],0.922
same,glycan array binding signal (z-score),[35],-0.291
same,glycan array binding signal (z-score),[36],0.618
same,glycan array binding signal (z-score),[37],0.926
same,glycan array binding signal (z-score),[38],0.781
same,glycan array binding signal (z-score),[39],-0.085
same,glycan array binding signal (z-score),[40],-0.189
same,glycan array binding signal (z-score),[41],-0.209
same,glycan array binding signal (z-score),[42],0.142
same,glycan array binding signal (z-score),[43],-0.374
same,glycan array binding signal (z-score),[44],0.358
same,glycan array binding signal (z-score),[45],1.65
